# In the supplement of paper PMC4604168 (melanoma cell lines):
# The other results are listed elsewhere or left out. Single values are uncertain, as repeats are few or missing.
# Legend:
# Assay in all cases: cell count relative to DMSO control; melanoma cells; higher = more viable cells
# Conditions in all cases: library dose: low library concentration; 72 h
# MZ2-MEL = test system: MZ2-MEL
# MeWo = test system: MeWo
# RPMI7951 = test system: RPMI7951
# RVH-421 = test system: RVH-421
# SkMel28 = test system: SkMel28
# SkMel2 = test system: SkMel2
# SkMel30 = test system: SkMel30
# UACC62 = test system: UACC62
# SkMel5 = test system: SkMel5
# UACC257 = test system: UACC257
# 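Also: cell number obtained by counting DAPI-stained nuclei in high-throughput microscope images with image analysis software, screen run in 1,536-well plates.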
SMILES,cell count (MZ2-MEL),cell count (MeWo),cell count (RPMI7951),cell count (RVH-421),cell count (SkMel28),cell count (SkMel2),cell count (SkMel30),cell count (UACC62),cell count (SkMel5),cell count (UACC257)
"NC(=O)c1ccc(N(C(N)=O)c2c(F)cccc2F)nc1-c1ccc(F)cc1F + Cc1nc(Nc2ncc(C(=O)Nc3c(C)cccc3Cl)s2)cc(N2CCN(CCO)CC2)n1 [dasatanib] (first compound 0.4 µM, partner dose 0.004 µM)",86%,87%,62.6%,68.7%,75.3%,104%,93.1%,89.1%,,
"NC(=O)c1ccc(N(C(N)=O)c2c(F)cccc2F)nc1-c1ccc(F)cc1F + Clc1ccc(Nc2nnc(Cc3ccncc3)c3ccccc23)cc1 [vatalanib] (first compound 0.4 µM, partner dose 2 µM)",99.7%,63.6%,92.3%,95.1%,110%,103%,88.9%,84.7%,,
"CCCCCCCCc1ccc(CCC(N)(CO)CO)cc1 [fingolimod] + CN1CCN(c2ccc3nc(-c4c(N)c5c(F)cccc5[nH]c4=O)[nH]c3c2)CC1 [Dovitinib] (first compound 2 µM, partner dose 0.1 µM)",91.7%,97.7%,92.3%,83.7%,89.7%,104%,77.5%,65.4%,,
"CCCCCCCCc1ccc(CCC(N)(CO)CO)cc1 [fingolimod] + Nc1ccn([C@@H]2O[C@H](CO)[C@@H](O)C2(F)F)c(=O)n1 [gemcitabine] (first compound 2 µM, partner dose 0.0004 µM)",88.8%,96.5%,83.9%,89.3%,81.4%,91%,90.1%,89.8%,,
"CCCCCCCCc1ccc(CCC(N)(CO)CO)cc1 [fingolimod] + NC1(c2ccc(-c3nc4ccn5c(=O)[nH]nc5c4cc3-c3ccccc3)cc2)CCC1 [MK2206] (first compound 2 µM, partner dose 0.4 µM)",88%,73.8%,71.6%,74.5%,68.2%,78.3%,75.9%,58.1%,,
"NC(=O)c1ccc(N(C(N)=O)c2c(F)cccc2F)nc1-c1ccc(F)cc1F + C[C@]1(c2nc3c(C(N)=O)cccc3[nH]2)CCCN1 [Veliparib] (first compound 0.4 µM, partner dose 1.4 µM)",96.3%,81.5%,71.7%,94.6%,72.9%,87.3%,96.2%,76.9%,,
"CCCCCCCCc1ccc(CCC(N)(CO)CO)cc1 [fingolimod] + Nc1ncn([C@H]2C[C@H](O)[C@@H](CO)O2)c(=O)n1 [decitabine] (first compound 2 µM, partner dose 0.1 µM)",85%,88.9%,55.2%,81.4%,71.6%,88.8%,105%,77.7%,,
"NC(=O)c1ccc(N(C(N)=O)c2c(F)cccc2F)nc1-c1ccc(F)cc1F + COc1ccc(C2=N[C@@H](c3ccc(Cl)cc3)[C@@H](c3ccc(Cl)cc3)N2C(=O)N2CCNC(=O)C2)c(OC(C)C)c1 [Nutlin-3] (first compound 0.4 µM, partner dose 0.1 µM)",105%,95.8%,95.2%,88.4%,82.3%,95%,97.1%,81%,,
"NC(=O)c1ccc(N(C(N)=O)c2c(F)cccc2F)nc1-c1ccc(F)cc1F + C=CCNC1=C2C[C@@H](C)C[C@H](OC)[C@H](O)[C@@H](C)/C=C(\C)[C@H](OC(N)=O)[C@@H](OC)/C=C\C=C(/C)C(=O)NC(=CC1=O)C2=O [Tanespimycin] (first compound 0.4 µM, partner dose 0.002 µM)",106%,95.6%,92.8%,85.3%,84.8%,92.5%,85.1%,92.3%,,
"NC(=O)c1ccc(N(C(N)=O)c2c(F)cccc2F)nc1-c1ccc(F)cc1F + Nc1ncn([C@H]2C[C@H](O)[C@@H](CO)O2)c(=O)n1 [decitabine] (first compound 0.4 µM, partner dose 0.1 µM)",102%,87%,100%,88.2%,86%,104%,119%,89.4%,,
"NC(=O)c1ccc(N(C(N)=O)c2c(F)cccc2F)nc1-c1ccc(F)cc1F + Nc1nc(F)nc2c1ncn2[C@@H]1O[C@H](CO)[C@@H](O)[C@@H]1O [fludarabine] (first compound 0.4 µM, partner dose 0.2 µM)",115%,35.2%,79.1%,116%,75.6%,10.6%,16.6%,81.6%,,
"CCCCCCCCc1ccc(CCC(N)(CO)CO)cc1 [fingolimod] + COCC[n+]1c2c(n(Cc3cnccn3)c1C)C(=O)c1ccccc1C2=O [YM155] (first compound 2 µM, partner dose 0.0004 µM)",74.6%,95.1%,77.6%,84.3%,83.3%,94.3%,77.8%,81.1%,,
"CCCCCCCCc1ccc(CCC(N)(CO)CO)cc1 [fingolimod] + Cc1nc(Nc2ncc(C(=O)Nc3c(C)cccc3Cl)s2)cc(N2CCN(CCO)CC2)n1 [dasatanib] (first compound 2 µM, partner dose 0.004 µM)",85.7%,82.7%,61.1%,84.8%,98.6%,94.3%,98.1%,76.2%,,
"Cc1ccc(NC(=O)c2cccc(N(C)C)c2)cc1NC(=O)c1ccc(O)cc1 + Cc1cc([N+](=O)[O-])ccc1NS(=O)(=O)c1cc(Cl)ccc1Cl [FH535] (first compound 2 µM, partner dose 1 µM)",81%,93.7%,106%,85.2%,82.9%,,89.5%,85.3%,76.6%,94.5%
"NC(=O)c1ccc(N(C(N)=O)c2c(F)cccc2F)nc1-c1ccc(F)cc1F + NC1(c2ccc(-c3nc4ccn5c(=O)[nH]nc5c4cc3-c3ccccc3)cc2)CCC1 [MK2206] (first compound 0.4 µM, partner dose 0.4 µM)",102%,68.3%,83.2%,58.8%,59.5%,93.1%,74.6%,72.1%,,
"CCCCCCCCc1ccc(CCC(N)(CO)CO)cc1 [fingolimod] + C[C@]1(c2nc3c(C(N)=O)cccc3[nH]2)CCCN1 [Veliparib] (first compound 2 µM, partner dose 1.4 µM)",89.1%,76.6%,64.4%,77.8%,78.4%,92.5%,92.9%,53.6%,,
"COc1cc2c(Oc3ccc4[nH]c(C)cc4c3F)ncnc2cc1OCCCN1CCCC1 [cediranib] + COc1ccc(COc2ccc(Cc3cnc(N)nc3N)cc2OC)cc1 [GW2580] (first compound 0.4 µM, partner dose 1 µM)",99.9%,97.8%,91.5%,90.5%,86.8%,,126%,82.4%,96.4%,86.4%
"CCCCCCCCc1ccc(CCC(N)(CO)CO)cc1 [fingolimod] + Cn1nnc2c(C(N)=O)ncn2c1=O [temozolomide] (first compound 2 µM, partner dose 2 µM)",95.4%,86.4%,82.4%,118%,93.6%,96.5%,92.2%,70.3%,,
"NC(=O)c1ccc(N(C(N)=O)c2c(F)cccc2F)nc1-c1ccc(F)cc1F + CC(=O)c1c(C)c2cnc(Nc3ccc(N4CCNCC4)cn3)nc2n(C2CCCC2)c1=O [palbociclib] (first compound 0.4 µM, partner dose 0.04 µM)",82.7%,102%,96.3%,84.9%,84.5%,81.6%,102%,93.2%,,
"CCc1ccc(CCOc2ccc(CC3SC(=O)NC3=O)cc2)nc1 (stereo unspecified) [pioglitazone] + Cc1cc([N+](=O)[O-])ccc1NS(=O)(=O)c1cc(Cl)ccc1Cl [FH535] (first compound 2 µM, partner dose 1 µM)",96.9%,106%,100%,79.5%,101%,,80%,97%,79.9%,87.1%
"NC(=O)c1ccc(N(C(N)=O)c2c(F)cccc2F)nc1-c1ccc(F)cc1F + Cc1cc(Nc2cc(N3CCN(C)CC3)nc(/C=C/c3ccccc3)n2)n[nH]1 [ENMD2076] (first compound 0.4 µM, partner dose 0.04 µM)",108%,89.2%,108%,85%,81.4%,100%,87.5%,100%,,
"CCCCCCCCc1ccc(CCC(N)(CO)CO)cc1 [fingolimod] + Nc1cccc2c1CN(C1CCC(=O)NC1=O)C2=O [lenalidomide] (first compound 2 µM, partner dose 1 µM)",90.5%,90.8%,92.6%,91.6%,87.8%,92.6%,99.5%,103%,,
"NC(=O)c1ccc(N(C(N)=O)c2c(F)cccc2F)nc1-c1ccc(F)cc1F + Nc1ccn([C@@H]2O[C@H](CO)[C@@H](O)C2(F)F)c(=O)n1 [gemcitabine] (first compound 0.4 µM, partner dose 0.0004 µM)",86.2%,106%,85.7%,72.3%,96.2%,102%,98.9%,85.3%,,
"NC(=O)c1ccc(N(C(N)=O)c2c(F)cccc2F)nc1-c1ccc(F)cc1F + CN(c1ncccc1CNc1nc(Nc2ccc3c(c2)CC(=O)N3)ncc1C(F)(F)F)S(C)(=O)=O [PF562271] (first compound 0.4 µM, partner dose 0.08 µM)",89.3%,94.6%,70.8%,85.4%,66.2%,88.5%,86.5%,99.2%,,
"CCCCCCCCc1ccc(CCC(N)(CO)CO)cc1 [fingolimod] + COc1ccc(Cl)c(Nc2nc3ccccc3nc2NS(=O)(=O)c2cccc(NC(=O)C(C)(C)N)c2)c1 [XL147] (first compound 2 µM, partner dose 0.8 µM)",101%,92.7%,81.1%,82.3%,92.9%,86.2%,97.2%,60.3%,,
"CCCCCCCCc1ccc(CCC(N)(CO)CO)cc1 [fingolimod] + C#Cc1cccc(Nc2ncnc3cc(OCCOC)c(OCCOC)cc23)c1 [erlotinib] (first compound 2 µM, partner dose 0.8 µM)",105%,77.3%,67%,99.1%,94.9%,99.6%,70.3%,74.5%,,
